{"source": "the RNAGym collection of RNA variant scans (doi:10.1093/nar/gkz1192)", "parents": {"B1": {"name": "CPEB3 Ribozyme (parent)", "chain": "UAACAGGGGGCCACAGCAGAAGCGUUCACGUCGCAGCCCCUGUCAGAUUCUGGUGAAUCUGCGAAUUCUGCUGUAUAUCUC"}}, "note": "The source gives no read counts; variants with many changes may rest on few reads."}
{"variants_of": "B1", "test": "self-cleavage, relative activity (ratio to wild type); higher = more cleavage; in vitro, sequencing", "in_short": "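After error-prone PCR and barcoding, CPEB3 ribozyme mutant libraries were transcribed with T7 RNA polymerase at 37°C for 5 hours, then given 15 min with DNase I before an EDTA stop, and they cleaved during both steps. Reverse transcription with template switching preceded Illumina sequencing. Relative activity divides a variant's cleaved/total read fraction by the unmutated ribozyme's. At least 5 reads were required per variant, and three batches were averaged.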"}
{"variant": "UAACAGGGGGCCACAGCGGGAGCGUUCACAUCGCAGCCCCUGUCAGAUUCUGGUGAAUCUGCGAAUUCUGCUGUGUAUCUC", "note": "[A18G A20G G30A A75G]", "self-cleavage": 0.07}
{"variant": "UAACAGGGGGCCACAGCGGGGGCAUUCACGUCGCAGCCCCUGUCAGAUUCAGGUGAAUCUGCGAAUUCUGCUGUAUAUCAC", "note": "[A18G A20G A21G G24A U51A U80A]", "self-cleavage": 0.16}
{"variant": "UAACAGGGGGCCACAGCCCAAGCGUUCACGUCGCAGCCCCUGUCAGAUUCUGGAGAAUCUGCGAAUUCAGCUGUAUAUCUC", "note": "[A18C G19C U54A U69A]", "self-cleavage": 0.07}
{"variant": "UAACAGGGGGCCACAGCCGAAGCGUUCACGUCGGAGCCCCUGUCAGAUUCUGGUGAAUCUGCGGAUUCUGCUGUAUAUCUC", "note": "[A18C C34G A64G]", "self-cleavage": 0.28}
{"variant": "UAACAGGGGGCCACAGCCGAAACGUUCACGUCGCAGCCCCUGUCAGAUUCUGGUGAAUCUGCGAAUUCUGCUGUAUAUCCC", "note": "[A18C G22A U80C]", "self-cleavage": 0.25}
{"variant": "UAACAGGGGGCCACAGCCGAAGCGCUCACGUCGCAUCCCCUGUCAGAUUCUGGUGAAUCUGCGAAUUCUGCUGUAUAUCUC", "note": "[A18C U25C G36U]", "self-cleavage": 0.21}
{"variant": "UAACAGGGGGCCACAGUAGAAGCGUUCACGUCGCAGCCCCUGUCAGAUUCUGGUGAAUCCGCGAAUUCUGCAGUAUUUCUC", "note": "[C17U U60C U72A A77U]", "self-cleavage": 0.16}
{"variant": "UAACAGGGGGCCACAGCCGGAGCGUUCACGUCGCAGCCCCUGUCAGAUUCUGGUGAAUCUGCGAAUUCUGCUGUAUAUCCA", "note": "[A18C A20G U80C C81A]", "self-cleavage": 0.83}
{"variant": "UAACAGGGGGCCACAGCCGAAGCGAUCACGUCGCGGCCCCUGUCAGAUUCUGGUGAAUCUGCGAAUUCUGCUGUAUAUCUC", "note": "[A18C U25A A35G]", "self-cleavage": 0.26}
{"variant": "UAACAGGGGGCCACAGCCGAAGCGCUCACGUCGCAGCCCCUGUCAGAUUCCGGUGUAUCUGCUAAUUCUGCUGUACAUCUC", "note": "[A18C U25C U51C A56U G63U U76C]", "self-cleavage": 0.06}
{"variant": "UAACAGGGGGCCACAGCCGAAGCGUUCACGUAGCAGCCCCUGUCCGAUUCUGGUGAAUCUGCGAAAUCUGCUGUAUAUCUC", "note": "[A18C C32A A45C U66A]", "self-cleavage": 0.26}
{"variant": "UAACAGGGGGCCACAGCGGUAGCGCUCACGUCGCAGCCUCUGUCAGAUCCAGGUGAAUCUGCGAGUUCUGCUGUAUAUCUC", "note": "[A18G A20U U25C C39U U49C U51A A65G]", "self-cleavage": 0.04}
{"variant": "UAACAGGGGGCCACAGUAGAAGCGUUCACGUCGCAGCCCCUGUCAGAUUCUGGGGAAUCCGCGAAUUCUGCUGUAUAUCUC", "note": "[C17U U54G U60C]", "self-cleavage": 0.47}
{"variant": "UAACAGGGGGCCACAGCGGGAGCGUUCACGUCGCAGACCCCGUCAGAUUCUGGUGAAUCUGCGAAUUCUGCUGUAUAUCUC", "note": "[A18G A20G C37A U41C]", "self-cleavage": 0.26}
{"variant": "UAACAGGGGGCCACAGCGGUAGCGUUCACGUCGCAGCCACUGUCAGAUUCUGGUGAAUCUGCGAAUUCUGCUGUAUAUCUC", "note": "[A18G A20U C39A]", "self-cleavage": 0.17}
{"variant": "UAACAGGGGGCCACAGCCGAAGCGUUCACGUCGCGGCCCCUGUCAGAUUCCAGUGAAUCUGCGAUUUCUGCUGUAUACCUC", "note": "[A18C A35G U51C G52A A65U U78C]", "self-cleavage": 0.34}
{"variant": "UAACAGGGGGCCACAGCCGAAGCGUUCACGUCGCAGCCCCUGUCAGAUUCUGGUGAAUCUGCGAUUUCUGCCGUAUAUCUC", "note": "[A18C A65U U72C]", "self-cleavage": 0.24}
{"variant": "UAACAGGGGGCCACAGCCGAAGCGUUCACGUCGCAGCCCCUGUCAGAUUCUGGUGGAUCUGCGAAGUCUGCUGUAUAUCUC", "note": "[A18C A56G U66G]", "self-cleavage": 0.2}
{"variant": "UAACAGGGGGCCACAGUAGAAGCGUUCACGUCGCAGCCCCUGUCAGAUUCUGGUGAAUCCGCGAAUUCUGCAGUACUUCUC", "note": "[C17U U60C U72A U76C A77U]", "self-cleavage": 0.13}
{"variant": "UAACAGGGGGCCACAGCGGUAGCGUUCACGUCGCAGCCCCUGUCAGAUUCUAGUGAAUCUGCGAACUCUGCUGUAUAUCUC", "note": "[A18G A20U G52A U66C]", "self-cleavage": 0.12}
{"variant": "UAACAGGGGGCCACAGUAGAAGCGUUCACGUCGCAGCCCCUGCCAGAUUCUGGUGAAUCUGCGAAUUCAGCAGUAUAUCUC", "note": "[C17U U43C U69A U72A]", "self-cleavage": 0.24}
{"variant": "UAACAGGGGGCCACAGCCGAAGCGUUCACGCCGCAGCCCCUGUCAGAUUCUGGAGAAUCUGCGUAUUCUGCUGUAUAUCCC", "note": "[A18C U31C U54A A64U U80C]", "self-cleavage": 0.13}
{"variant": "UAACAGGGGGCCACAGCGGGAGCGUUCACGUCGCAGCCCCUGUCGGAUUCUGGUGGAUCUGCGAAUUCUGCUGUACAUCUC", "note": "[A18G A20G A45G A56G U76C]", "self-cleavage": 0.46}
{"variant": "UAACAGGGGGCCACAGCCGGAGCGUUCACGUCGCAGCCCCUGACAGACUCUGGUGAAUCUGCGAAUUCUGCUGUAUAUCUC", "note": "[A18C A20G U43A U48C]", "self-cleavage": 0.44}
{"variant": "UAACAGGGGGCCACAGCCGAGGCGUUCACGUCGCAGCCCUCGUCAGAUUCUGGUGAACCUGCGAAUUCUGCUGUUUAUCUC", "note": "[A18C A21G C40U U41C U58C A75U]", "self-cleavage": 0.2}
{"variant": "UAACAGGGGGCCACAGUAGAAGCGUUCACGUCGCAGCCCCAGUCAGAUUCUGGUGGAUCUGCGAAUUCUGCUGUAUAUCUC", "note": "[C17U U41A A56G]", "self-cleavage": 0.1}
{"variant": "UAACAGGGGGCCACAGCCGAAGCGUUCACGACGCAGCCCCUGCCAGAUGCCAGUGAAUCUGCGAAUUCUGCUGUAUAUCUC", "note": "[A18C U31A U43C U49G U51C G52A]", "self-cleavage": 0.24}
{"variant": "UAACAGGGGGCCACAGCCGAAGCGUUCACGCCGCAGCCCCUGUCAGAUUCUGGUGAAUCUGCGAAUUCUGCAGUAUAACUC", "note": "[A18C U31C U72A U78A]", "self-cleavage": 0.09}
{"variant": "UAACAGGGGGCCACAGUAGAAGCGUUCACGUCGCAGCCCCUGUCAGAUUCUGGUGAAUCUGCGAAUUCUGCUGUAAAUUUC", "note": "[C17U U76A C79U]", "self-cleavage": 0.76}
{"variant": "UAACAGGGGGCCACAGCGGGAGCGUUCACGUCGCAGCCCCUGUCAGAUUCUGGUGAAUCUGCGAAUUCUGCUGUAUAUCUG", "note": "[A18G A20G C81G]", "self-cleavage": 0.7}
{"variant": "UAACAGGGGGCCACAGCGGGAGCGUUCACGUCGCAGCCCCUGUCAGAUUCUGGUGAAUCUGCGAAUUCUGCUAUAUAGCUC", "note": "[A18G A20G G73A U78G]", "self-cleavage": 0.69}
{"variant": "UAACAGGGGGCCACAGCGGCAGCGUACACGUCGCGGCCCCUGUCGGAUUCUGGUGGAUCUGCGAAUUCUGCUGUGUAUCUC", "note": "[A18G A20C U26A A35G A45G A56G A75G]", "self-cleavage": 0}
{"variant": "UAACAGGGGGCCACAGUAGAAGCGUUCACGUCGCAGCCCCUGUCAGAUUCUGGUGAAUCCGCGAAUUCUGCUGUAUAUCCC", "note": "[C17U U60C U80C]", "self-cleavage": 0.24}
{"variant": "UAACAGGGGGCCACAGUAGAAGCGUUCACGGCGCAGCCCCCGUCAGAUUCUGGGGAAUCCGCGUAUUCUGCUGUAUAUCUC", "note": "[C17U U31G U41C U54G U60C A64U]", "self-cleavage": 0.09}
